Source: the RNAGym collection of RNA variant scans (doi:10.1073/pnas.2313332121)
Variants at the background level are over-represented here.

B1: TPR 5TU (parent)
chain: GGAUCUUCUCGAUCUAACAAAAAAGACAAAUCUGCCACAAAGCUUGAGAGCAUCUUCGGAUGCAGAGGCGGCAGCCUUCGGUGGCGCGAUAGCGCCAACGUUCUCAACUAUGACACGCAAAACGCGUGCUCCGUUGAAUGGAGUUUAUCAUG

Variants of: B1
Assay: polymerase ribozyme fitness, log enrichment relative to wild type (log ratio); higher = more active; in vitro selection for triplet polymerase activity
Outline: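 Streptavidin-bead capture of gel-excised extended constructs, followed by RT-PCR, closed a single triplicate in vitro selection round. That round began by annealing PCR-built, transcribed mutant libraries of each subunit of a heterodimeric triplet polymerase ribozyme with a biotinylated primer, the partner subunit and triplets, then incubating them frozen at −7 °C. After Illumina sequencing of inputs and outputs, genotypes needed ≥10 input reads and ≥1 read per output. Fitness is the base-2 logarithm of genotype enrichment over wild-type enrichment, using inverse-variance-weighted replicate averages.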

Variant	polymerase ribozyme fitness (log ratio)
U13A C36A G92C A97U	≤ -4.2
U13A C43G C63U C75G A89C C108A A110G	≤ -4.2
U13A C51U C72U G84U A106G A121U C123A A138C	≤ -4.2
U13A C51U G65U U82A G84U A119U G140C	≤ -4.2
U13A C54G G68A C75G C76G U90G C95G A119U	≤ -4.2
U13A G42A A52C U55G U56A G84C C87A C105G C123G A150G	≤ -4.2
U13A G42U U55A C57A G59A A60C G92A C103A	≤ -4.2
U13A G50C A52C C87A A98U G117U C123U	≤ -4.2
U13A G50C A52U C57G G84A C85G G94U A97G	≤ -4.2
U13A G50C C76G C79G U90A G92C U134G	≤ -4.2
U13A G58U A64U C93A G141U	≤ -4.2
U13A G67A G81C U90C G152A	≤ -4.2
U13A G74C C93U G124A	≤ -4.2
U13A G80A A107U U144G U145G C149U	≤ -4.2
U13A U15C A28G U33G C79A C118U U148G	≤ -4.2
U13A U15C C27A A29G C93U A119C G126C	≤ -4.2
U13A U15C C87A A98U U111A	≤ -4.2
U13A U44G G46A U61G C85A A115G U127C	≤ -4.2
U13A U45A G84A	≤ -4.2
U13A U45A U56A G74A	≤ -4.2
U13A U53A C63G A97U U102G A142C	≤ -4.2

Variant	polymerase ribozyme fitness (log ratio)
U13A U56A C87A A91U G140C	≤ -4.2
U13A U61A C96U C108A	≤ -4.2
U13C A16C A23U A29U A60C C76U	≤ -4.2
U13C A16U A30C U45A A52C C85U A107C U135G	≤ -4.2
U13C A16U C57U C75U G83C C105G	≤ -4.2
U13C A17C A30C C35U C51A C75G C95G A106U U146A C149U	≤ -4.2
U13C A17G A49C C54A G65C G83A G86A U104C G124U G128U	≤ -4.2
U13C A19C C35U U45A C57G U61C C69A U78G G83A U134G U151G	≤ -4.2
U13C A19C C51U A66C C103G A138U	≤ -4.2
U13C A19U A47G U56A C129A U144A	≤ -4.2
U13C A19U U55A G83A U111G	≤ -4.2
U13C A20C A21C G58A U82A U101A	-1.36
U13C A20C G83U C85A C93A	≤ -4.2
U13C A21G U31C G42A A52C C95A C129G	≤ -4.2
U13C A22G A49U G68C C79G	≤ -4.2
U13C A26U A52C U55A G88A A89C C99U U135G A142U	≤ -4.2
U13C A26U U90G	≤ -4.2
U13C A28C C32U A49C G50A A91U G94A	≤ -4.2
U13C A37C A39U A47C C54U C85U A121G U127G	≤ -4.2
U13C A40C G48U G81C U145C U148A	≤ -4.2
U13C A41C U56G G59A A73U C85U	≤ -4.2

Variant	polymerase ribozyme fitness (log ratio)
U13C A47C C75G A91U C93A	≤ -4.2
U13C A49C	≤ -4.2
U13C A49G G59U G92C C108U A138U A142C G143U	≤ -4.2
U13C A49G U55A C79U G92U C95A G140A	≤ -4.2
U13C A52C U55A G92U C93A A113U	≤ -4.2
U13C A52G U56G C96U A137G	≤ -4.2
U13C A66U G88A A91U	≤ -4.2
U13C C14G U33C A47G U55G G136A	≤ -4.2
U13C C14U G71A G81C C103A U109A	≤ -4.2
U13C C18G A19C G68C C85A C118U	≤ -4.2
U13C C18G A21U A40C U53G A60U U61A G94U G100A G126A	≤ -4.2
U13C C18G C69G C72U G88C C105A	≤ -4.2
U13C C18G G42U U44A A47G	≤ -4.2
U13C C27A C69U U78C C87U U101C U135C G141U	≤ -4.2
U13C C27U U53A U55G U56A G62A G88C A113U A115G	≤ -4.2
U13C C27U U61A C85G A120C C125G	≤ -4.2
U13C C32G A40U G58U C76A	≤ -4.2
U13C C32U G58C G67A C95A C116G C149U	≤ -4.2
U13C C43A A60G C85U U148C	≤ -4.2
U13C C43A U44A G59C A98G	≤ -4.2
U13C C54G C95G C108G C129A	≤ -4.2

Variant	polymerase ribozyme fitness (log ratio)
U13C C57A G58A A66G U82G C116U	≤ -4.2
U13C C57U G67C G71A A106G A110U U134A	≤ -4.2
U13C C57U U78A G92C C93A C95U A122U	≤ -4.2
U13C C76A U82G C85U C118G	-2.92
U13C G25C C76A A97U C103G C105G U139C	≤ -4.2
U13C G50U G59A U82C A121U G136A	-1.14
U13C G68A C85A G92A G126A G140A A142C	≤ -4.2
U13C G88A C99G	-4.01
U13C G94C U104G	-2.15
U13C U15G A29C C43U G92U A120C G126A G133U A142U	≤ -4.2
U13C U56A A60G C95U C105G U109G C132A U145G	≤ -4.2
U13G A16C A21U G50C A73G C103U	≤ -4.2
U13G A16C A28G G59A C63A C85U	≤ -4.2
U13G A17C A29U G83C C95U A119G A120G A147U	≤ -4.2
U13G A19C A29G G50C U127C	≤ -4.2
U13G A19C A37C U44A U82A C96A G152U	≤ -4.2
U13G A19C A66C G70U G88C U90C	≤ -4.2
U13G A19C G48U C75A C96U A107G G126C	≤ -4.2
U13G A19C G62C G65A U82G C87G G143A	≤ -4.2
U13G A19U A28C A91G G112C A115G A120G G140C A147U U151C	≤ -4.2
